# Experimental data: the supplement of paper PMC9135407
# Several values for one entry are separate records, joined by “and”; a condition that tells them apart may be missing. Equal entries are not always repeated. Structures can show the parent of a compound that is named as a salt. Screen size: about 5,800 compounds; about 620 (11%) showed activity.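 The calls were made as follows: active = score above a cut-off or among the top three wells of a plate; in these data no inactive exceeds 0.85.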 The list shows a part of the results, in another mix than the full data.
# System: primary human hepatic stellate cells (donor 1)
# Assay: scaled lipid accumulation score (0 = DMSO-like, 1 = nortriptyline-like); higher = stronger HSC inactivation (lipid re-accumulation), active = hit call of the paper
# Settings: 48 h
# [1] = library stock concentration: 3.33 mM
# [2] = library stock concentration: 10 mM
# [3] = library stock concentration: 1 mM
# [4] = library stock concentration: 80 uM
# [5] = library stock concentration: 400 uM
# [6] = library stock concentration: 2 mM
compound,measurement,setting,value
COc1ccccc1OCC(O)CN1CCN(CC(=O)Nc2c(C)cccc2C)CC1 (stereo unspecified) [Ranolazine 2HCl],scaled lipid accumulation score,[1],inactive: ≤ 0
same,scaled lipid accumulation score,library stock concentration: 4.7 mM,inactive: ≤ 0
same,scaled lipid accumulation score,[2],inactive: ≤ 0
COc1cc(/C=C(\C#N)C(=O)Nc2nnc(C(F)(F)F)s2)ccc1OCc1ccc(C(F)(F)F)cc1C(F)(F)F,scaled lipid accumulation score,[2],inactive: ≤ 0
COc1cc([C@@H]2c3cc4c(cc3[C@@H](O[C@@H]3O[C@@H]5CO[C@@H](C)O[C@H]5[C@H](O)[C@H]3O)[C@H]3COC(=O)[C@H]23)OCO4)cc(OC)c1O [Etoposide],scaled lipid accumulation score,,inactive: ≤ 0
same,scaled lipid accumulation score,[1],inactive: ≤ 0
same,scaled lipid accumulation score,[2],inactive: ≤ 0 and inactive: 0.026 and inactive: ≤ -0.006
"O=P(O)(O)O[C@H]1[C@H](O)[C@@H](O)[C@H](OP(=O)(O)O)[C@@H](OP(=O)(O)O)[C@H]1O [D-myo-Inositol-1,3,4-triphosphate (sodium salt)]",scaled lipid accumulation score,[3],inactive: ≤ 0
CCCCCCCC/C=C\CCCCCC(=O)OC [cis-7-Hexadecenoic Acid methyl ester],scaled lipid accumulation score,[3],inactive: ≤ 0
CC(=O)Oc1ccc2c(c1)CCC1C2CC[C@]2(C)C(=O)CCC12 (stereo partly specified) [Estrone acetate],scaled lipid accumulation score,[2],inactive: ≤ 0
Nc1nc2n[nH]nc2c(=O)[nH]1 [Azaguanine-8],scaled lipid accumulation score,,inactive: 0.305
same,scaled lipid accumulation score,[1],inactive: ≤ 0
same,scaled lipid accumulation score,[2],inactive: 0.419
Nc1nc2c(nc(Br)n2C2OC3COP(=O)(O)O[C@@H]3C2O)c(=O)[nH]1 (stereo partly specified) [8-Bromo-cGMP sodium],scaled lipid accumulation score,[2],inactive: ≤ 0
"CCCCCC(O)CCC1C(O)CC(=O)C1CCCCCCC(=O)O [13,14-dihydro-15(R)-Prostaglandin E1]",scaled lipid accumulation score,[3],inactive: ≤ 0
"CCCCCC(O)CCC1C(O)CC(=O)C1CCCCCCC(=O)O (stereo unspecified) [13,14-dihydro Prostaglandin E1]",scaled lipid accumulation score,[3],inactive: ≤ 0
CC(NC(=O)C(O)c1cc(F)cc(F)c1)C(=O)NC1C(=O)N(C)c2ccccc2-c2ccccc21 (stereo unspecified),scaled lipid accumulation score,[1],inactive: 0.011
same,scaled lipid accumulation score,[2],inactive: 0.133
COc1cc2c(cc1-c1c(C)noc1C)ncc1[nH]c(=O)n([C@H](C)c3ccccn3)c12,scaled lipid accumulation score,[4],inactive: ≤ 0
same,scaled lipid accumulation score,[5],inactive: ≤ 0
same,scaled lipid accumulation score,[6],inactive: ≤ 0
same,scaled lipid accumulation score,[1],inactive: ≤ 0
same,scaled lipid accumulation score,[2],inactive: 0.004 and inactive: ≤ 0
CN(C)c1nc(N(C)C)nc(N(C)C)n1 [Altretamine],scaled lipid accumulation score,,inactive: ≤ 0
same,scaled lipid accumulation score,[1],inactive: ≤ 0
same,scaled lipid accumulation score,library stock concentration: 9.5 mM,inactive: ≤ 0
same,scaled lipid accumulation score,[2],inactive: ≤ 0 and inactive: 0.288 and inactive: ≤ -0.027
COc1cc(N2CCC(C(N)=O)CC2)ccc1Nc1nc(N)c(Cl)c(Nc2ccccc2S(=O)(=O)C(C)C)n1,scaled lipid accumulation score,[4],inactive: ≤ 0
same,scaled lipid accumulation score,[5],inactive: ≤ 0
same,scaled lipid accumulation score,[6],inactive: 0.025
same,scaled lipid accumulation score,[2],inactive: 0.537
COc1nccc(-c2c(-c3ccc(F)cc3)ncn2C2CCNCC2)n1,scaled lipid accumulation score,[5],inactive: ≤ -0.005
same,scaled lipid accumulation score,[6],inactive: 0.173
same,scaled lipid accumulation score,[2],inactive: ≤ -0.005
COc1cc2c(Oc3ccc4[nH]c(C)cc4c3F)ncnc2cc1OCCCN1CCCC1 [Cediranib (AZD2171)],scaled lipid accumulation score,[2],inactive: 0.678
COc1cc2c(Oc3ccc4[nH]c(C)cc4c3F)ncnc2cc1OCCCN1CCCC1 [Cediranib],scaled lipid accumulation score,[4],inactive: 0.077
same,scaled lipid accumulation score,[5],inactive: 0.464
same,scaled lipid accumulation score,[2],inactive: 0.693
CNc1cc(OC)c(C(=O)NC2CCN(Cc3ccccc3)C2C)cc1Cl (stereo unspecified) [Nemonapride],scaled lipid accumulation score,[2],inactive: 0.728
O=C(O)c1cc(-c2ccccc2)nc2ccccc12 [Cinchophen],scaled lipid accumulation score,[1],inactive: ≤ 0
same,scaled lipid accumulation score,[2],inactive: 0.163
O=C(O)c1cc(-c2ccccc2)nc2ccccc12,scaled lipid accumulation score,[2],inactive: ≤ 0
CC(=O)O[C@]1(C(C)=O)CC[C@H]2[C@@H]3C[C@H](C)C4=CC(=O)CC[C@]4(C)[C@H]3CC[C@@]21C [Medroxyprogesterone acetate],scaled lipid accumulation score,[1],inactive: ≤ 0
same,scaled lipid accumulation score,library stock concentration: 5.2 mM,inactive: ≤ -0.001
same,scaled lipid accumulation score,[2],inactive: ≤ 0
CC(=O)O[C@]1(C(C)=O)CC[C@H]2[C@@H]3C[C@H](C)C4=CC(=O)CC[C@]4(C)[C@H]3CC[C@@]21C [Medroxyprogesterone 17-acetate],scaled lipid accumulation score,[2],inactive: ≤ 0
same,scaled lipid accumulation score,library stock concentration: 16.4 mM,inactive: ≤ 0
CC(C)(C)c1nc2c3cc[nH]c(=O)c3c3cc(F)ccc3c2[nH]1 [Merck -5 (2 mM)],scaled lipid accumulation score,[6],inactive: ≤ -0.005
CC(C)(C)c1nc2c3cc[nH]c(=O)c3c3cc(F)ccc3c2[nH]1 [JAK Inhibitor I],scaled lipid accumulation score,[1],inactive: ≤ 0
CC(C)(C)c1nc2c3cc[nH]c(=O)c3c3cc(F)ccc3c2[nH]1 [Merck -5 (10 mM)],scaled lipid accumulation score,[2],inactive: 0.114
CC(C)(C)c1nc2c3cc[nH]c(=O)c3c3cc(F)ccc3c2[nH]1 [Merck -5 (0.4 mM)],scaled lipid accumulation score,[5],inactive: ≤ -0.005
